# Measured values published in the supplement of paper PMC12632987.
# Over roughly 1,800 sequences, “median log2 fold change of GCK-ALFA target abundance (FLAG IP / Myc IP barcode read proportion)” has its median near 0.14; the lowest 2% begin near -0.84. This is one part of the list.
# T1: TRAF2, Q12933
# T1 chain: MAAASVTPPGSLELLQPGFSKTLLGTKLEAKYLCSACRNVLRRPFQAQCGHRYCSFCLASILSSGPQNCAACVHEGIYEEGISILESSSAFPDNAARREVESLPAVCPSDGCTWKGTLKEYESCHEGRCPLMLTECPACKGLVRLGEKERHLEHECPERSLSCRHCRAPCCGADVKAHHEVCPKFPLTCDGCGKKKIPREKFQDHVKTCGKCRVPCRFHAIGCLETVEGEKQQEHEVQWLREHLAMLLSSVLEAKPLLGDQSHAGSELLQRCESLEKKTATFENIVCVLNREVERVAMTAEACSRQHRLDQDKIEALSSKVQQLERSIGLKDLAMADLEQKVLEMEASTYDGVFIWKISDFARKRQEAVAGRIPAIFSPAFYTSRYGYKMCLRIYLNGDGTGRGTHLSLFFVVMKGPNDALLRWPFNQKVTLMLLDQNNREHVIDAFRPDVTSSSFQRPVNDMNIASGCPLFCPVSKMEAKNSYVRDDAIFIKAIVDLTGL
# B1: traf2_out_18_3_1911 (protein)
# chain: SEEERKKISDKIDELVDEATAKARETLERLEREHPEFRERYRRLRADLEAGAGPFGILEALAELAKEAGDEELAAEIEAFLAEKRKEMQELVDEYEKLLK
# B2: traf2_out_16_104_1404 (protein)
# chain: AEAKQAEFDAIIAELEAIADKLQKIANKLYKLYLKADPETKVKLSDALVKASEARRAALEAAERAREARETGGDLAEARAALAKAKEEAAKVEKEVKELE
# B3: traf2_out_17_178_1662 (protein)
# chain: SKEEERKKISELTDELIDLAEDAAERMLELAEKEGDVSEEELEELREARRRGSATDVLALGERLIPKLKNSEELGALLEEFKARYRELSKEIAEAYERYE
# B4: traf2_out_20_38_2037 (protein)
# chain: SEEEEEEKKLQEVIDVANEALDKYEKKIAEWKAEGKTVEEIAEAAKEEVRRLLEEVGLEEEAEILVEDIDRALSSPDAERLIARILARAVALVKQKELNK
# B5: traf2_out_17_60_1763 (protein)
# chain: GPEEEKEELKREARRAIEEARRLVEEVRAKLAAGTLTASEAMDWLVELTEKRRELERLLEEAEKKGEEMEELKRELERAIEEVRRTMNEVGKHLLELLEA
# B6: traf2_out_18_167_1822 (protein)
# chain: SAETEAEIERLTDELVRVSEIRRLALLALEALRTDPAAADAARDALIAALNEVPEFRPDAAALRAAPRAELPALLERIAERAQRRAQELYERREELKKKQ
# B7: traf2_out_11_104_642 (protein)
# chain: LTREQAREFNDFAMEQNDKAKELLAAVAEHLAARGHEEEAARVRAALAHPGFGASSYKNLLEELLPQLDAESAAVAQEAIKKIEELIKEASKKLNELEKK
# B8: traf2_out_20_3_2088 (protein)
# chain: EELEKKLKEALEKAKELIEKAIKLADEETAKKLKELKKKLEEAEKLPLDEQLVALSEVRRELLELAEKAKKEGKEELAKILEKAAEEVNKAMNLAYKIIE
# B9: traf2_out_6_156_2425 (protein)
# chain: MLEKIKAEAKEEIKKYIKELAKASEEKKIAYISKIAGAVYRALQRMREAGASVEELKAFGEELKATAKKAADEAGLDEETKNLLLSSIDAVTEVALREAA
# B10: traf2_out_20_3_2258 (protein)
# chain: EELEKEAEKKLKEAEKLFKELAPKLPAETAKKAEELLKKAKEYFKTDKSEALVYVSELRQLALEEAERARAAGDEATAAGLEKLADTLNKLANLLYKIIQ
# B11: traf2_out_18_3_1934 (protein)
# chain: SEEERKEISDKIDEIVDDVRARARAELDRAAAELPEHADRIAALRAALEAGAAPFGILDALAELYREAGREEEAEAIEEYLREKRKEMQELVDEYEKLIK
# B12: traf2_out_17_178_1679 (protein)
# chain: TKEEERKKISEYTDKLIDLTEATGTTLLARARADGTISPEELAALEAAIRRGSNRTFLALARRIAPKLATAAEAQALLDAFEAEARELEKKIAEAYEKYE
# B13: traf2_out_16_177_1462 (protein)
# chain: ELDKIMDRIVVLSKIKRAAEYAIENKKEEAEKYLKEAEKEAEEAGDEEGLKKIKELKELMEKNTEEAKKKLKELAKEAQKEAGKLVDEAEALLKARAAAE
# B14: traf2_out_11_169_809 (protein)
# chain: EEEEKNREINDFALELNDEARARLKERALELAKAAGLDPAAVEAIFAANAGKSLSAVAAALIAYFKSQGAEAAAAEVLALHEELKDEINKEMTKKIKELE
# B15: traf2_out_15_180_1328 (protein)
# chain: MTEEELEKRIALASEVADKVQDFLDKLLAEHPELSEEQKAALRELARSVLTLLLNGEEEEAEAVLKRFKEKVDEETAKIAEELYEFAKKQVEEAKKELAA
# B16: traf2_out_20_38_2043 (protein)
# chain: SEEEEERRRLEEDVKIANEALDEVEAEFAELKAAGKSLAEIAAWAKARVRELFAEAGLEELVPEYLADIDTVADSPDAERLITRILARALARVRRAKAKK
# B17: traf2_out_20_3_2176 (protein)
# chain: EELEKELEKELEKAEKLIKEAAKLADEETAKKLKELIERLKKSRELSYEDQLVVLSEIRRELLEMAEKARAEGKEELAKVLEEAADAINKAMNLVYKIIE
# B18: traf2_out_18_167_1842 (protein)
# chain: EEEIRRRREELSDRLVALSELRRAARAALQALATDPSQVPATLAALEAAAAAVPELQPLVAAARAALAAGDREGLRATLEELIARAQRLAQEVLKEYEAL
# B19: traf2_out_5_189_2320 (protein)
# chain: SEREEEERRLRELAKRLAKEASELLNRLEKEGKSYEEIKEELLKRLEELSIEEANLYLGIAYAILLGRALAENDKELEKAAKEFRKEGLALIEERKKKAA
# Molecular target: T1, TRAF2, Q12933
# Assay: median log2 fold change of GCK-ALFA target abundance (FLAG IP / Myc IP barcode read proportion) (log2 ratio); each designed protein is fused to an ALFA-tag nanobody in HEK293 cells to bring the named protein to FLAG-tagged glucokinase (GCK); Myc marks an untargeted standard; higher = target protein stabilised (more abundant)
# Conditions: target protein: 3xFLAG-MCP-GCK-ALFA reporter; HEK293 landing pad (RPLP)
# Method in brief: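 The readout is target abundance, the per-binder median log2 ratio of FLAG to Myc barcode read proportions. It came from HEK293 landing-pad cells carrying a recombined ALFA-nanobody-fused binder library, induced with 2 μg mL^−1 doxycycline and transfected with a plasmid for a FLAG-tagged target and a Myc-tagged standard. After 48 h, lysates were immunoprecipitated with anti-FLAG and anti-Myc, and circular RNA barcodes were reverse transcribed, amplified and sequenced. Each barcode needed a proportion of at least 10^−7 in both replicates and each binder at least 3 barcodes per replicate, a pseudocount of 10^−6 was added, and the replicates were pooled.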
row,Binder,median log2 fold change
1,B1,0.276
2,B2,0.341
3,B3,0.161
4,B4,-1.45
5,B5,-0.0301
6,B6,0.336
7,B7,0.0806
8,B8,0.0022
9,B9,0.111
10,B10,0.384
11,B11,0.196
12,B12,0.291
13,B13,-0.0546
14,B14,0.202
15,B15,0.251
16,B16,0.244
17,B17,0.126
18,B18,0.287
19,B19,0.109
